This passage reports binding signal results from paper PMC5836133.

The other results are listed elsewhere or left out. At the low end of the ranking the order means little.

The test system of this assay is T1, GST-NbGlk1(82-244).
T1 sequence: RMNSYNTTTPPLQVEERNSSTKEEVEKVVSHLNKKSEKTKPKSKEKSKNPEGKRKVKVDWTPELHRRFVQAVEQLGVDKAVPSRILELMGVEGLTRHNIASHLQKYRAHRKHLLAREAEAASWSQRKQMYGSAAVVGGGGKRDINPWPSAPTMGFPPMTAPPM
The experiment in a line: protein-binding microarray.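 Further: rank-based score ranging −0.5 to +0.5 with E above 0.45 taken as significant binding.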 Conditions: NbGlk1 is a Golden2-like transcription factor of Nicotiana benthamiana; high values mean tight binding; most listed sequences are background and not binding sites; double strand, one strand shown.
CACTCGCG gave a binding signal of -0.0641 E-score.
To ATGTCCTC belongs -0.195 E-score.
To AGTATAAA belongs 0.127 E-score; to AACGTAGG, -0.0755 E-score.
To ATTTGTTA belongs 0.237 E-score.
Turning to CAACACTC, the binding signal was -0.089 E-score.
To ATTCACCG belongs 0.0709 E-score; to ACTATAGT, 0.00472 E-score; to AAGTCGCA, -0.0788 E-score.
As for ACGACGCG, the binding signal was -0.115 E-score.
To ACAACCCA belongs -0.09 E-score.
Sequence AAGGAGAA yielded a binding signal of -0.00191 E-score.
The sequence ACCCTAGC showed a binding signal of -0.0823 E-score.
To AGTGGCGG belongs -0.109 E-score.
As to AGACGACG, the binding signal was -0.219 E-score.
With CAACGCCC the figure was -0.201 E-score.
Consider ACTAGGTA, for which the binding signal was -0.106 E-score.
To ATGTACGA belongs 0.0471 E-score; to AAATCGTA, 0.373 E-score.
With ACGCTCAC the figure was -0.144 E-score; with AATAGTCT, -0.0165 E-score; with ACAAGTCA, -0.103 E-score.
Sequence AGGTGAAT had a binding signal of -0.0087 E-score.
To ATGGCTTG belongs -0.0401 E-score.
With CACTATAC the figure was 0.084 E-score; with ACATCCGT, 0.0593 E-score.
With ACGGGGCT the figure was -0.141 E-score; with AATGGCCC, -0.254 E-score; with ATATATAT, 0.244 E-score.
The sequence AACAGCTT gave a binding signal of -0.0586 E-score.
In the case of AATTTGCC, the binding signal was found to be 0.162 E-score.
With ACTCAACT the figure was -0.0644 E-score; with AGATGAGG, -0.155 E-score; with AATCCAGC, 0.364 E-score.
The sequence AACGAAGG registered a binding signal of -0.157 E-score.
To ACGCCTGG belongs -0.168 E-score.
With AACACACG the figure was 0.0279 E-score.
The sequence ACCACAGT yielded a binding signal of -0.0717 E-score.
With ACTGTTAA the figure was 0.0611 E-score.
With ATGATCAG the figure was 0.0902 E-score.
Consider ACGATAAG, for which the binding signal was 0.0808 E-score.
With AAGTCGAG the figure was -0.226 E-score; with ACAGGAAA, 0.137 E-score; with AATTGCGG, 0.199 E-score.
In turn, CAAGAAGG gave a binding signal of -0.158 E-score.
With ACCGTATG the figure was -0.0833 E-score.
Regarding ACGGCGCT, the binding signal is -0.191 E-score.
To AAATCAGA belongs 0.315 E-score; to ACCGAATC, 0.363 E-score; to ACCGTTCA, -0.0995 E-score.
For ATTCTAGC, the binding signal worked out at 0.157 E-score.
Regarding CACCCTAC, the binding signal is -0.169 E-score.
ACGCCGAG registered a binding signal of -0.126 E-score.
For AATCCGTC, the binding signal amounted to 0.39 E-score.
As for ACAAAACT, the binding signal is -0.00477 E-score.
With AGACGTCA the figure was 0.0486 E-score.
To AGTGCCAT belongs -0.103 E-score.
AAGCCAAT returned a binding signal of -0.0167 E-score.
To AACAGGGT belongs -0.0616 E-score; to AGCCTGGG, -0.309 E-score; to AAGGTCCC, -0.278 E-score.
To AAAGTCAG belongs -0.0648 E-score.
AGAGATCC: the binding signal came to 0.346 E-score.
To AGCTGCCA belongs -0.163 E-score.
To AACTCCTG belongs -0.193 E-score.
To ACAAGCAG belongs 0.0175 E-score; to AGTACCCG, -0.227 E-score; to CAAACTAC, 0.0598 E-score.
The sequence ACCGCACC yielded a binding signal of -0.0827 E-score.
With CACTGAAA the figure was 0.109 E-score; with AGGCTGAG, -0.189 E-score.
Turning to AAAACCTA, the binding signal was determined as 0.069 E-score.
To ACCCGCCT belongs -0.0782 E-score.
With ATTGCTCA the figure was 0.177 E-score.
With AGGATGGA the figure was -0.122 E-score.
In the case of AGACGGGG, the binding signal was -0.231 E-score.
With AGCAAATA the figure was 0.221 E-score; with AGCGTCGG, -0.254 E-score.
To CAGATATC belongs 0.468 E-score; to AAAAATGC, -0.00179 E-score; to ATCGCGCG, 0.356 E-score.
To AGGGTATG belongs -0.0161 E-score; to AAAAAAGC, 0.0454 E-score; to ATTGCACG, 0.251 E-score.
The sequence ATGGGTGG had a binding signal of 0.024 E-score.
To AGCATCCG belongs -0.159 E-score; to ACAGTTTA, -0.099 E-score.
With ATGGCAAG the figure was -0.114 E-score; with AAATAGGA, 0.105 E-score; with ACGCTAAT, -0.0991 E-score.
To ATGCCCTG belongs -0.141 E-score.
ACCCTTGA: the binding signal was -0.244 E-score.
With ACCCGTAC the figure was -0.232 E-score; with AAGGTGCG, -0.236 E-score; with ATTAGATG, 0.0767 E-score.
On to ACCACATG, for which the binding signal was -0.135 E-score.
To ACGACAGC belongs -0.158 E-score; to ACATCACC, -0.093 E-score.
To AATCCGAG belongs 0.384 E-score; to ACGGGACG, -0.212 E-score; to AAATAAAA, 0.273 E-score.
To CACCCATC belongs -0.0354 E-score.
The sequence AATGCCGC came in with a binding signal of -0.226 E-score.
For AATAAGAG, the binding signal was -0.0692 E-score.
To AGTGTCCC belongs -0.212 E-score; to ATTCCACG, 0.222 E-score.
With AATCGAAA the figure was 0.32 E-score.
To CAAATAGG belongs -0.0755 E-score; to ATATCGCC, 0.333 E-score; to CAAGTCAG, -0.139 E-score.
As to AGTCGGGA, the binding signal came out at 0.0164 E-score.
To ACGGTCAA belongs -0.0424 E-score; to AGGTTGTC, -0.273 E-score.
In turn, AAATTCTG displayed a binding signal of 0.235 E-score.
On to ACTCCCTA, for which the binding signal is -0.0758 E-score.
With CAATTGAG the figure was 0.0551 E-score; with AAAGTCAA, -0.0347 E-score; with AACACATG, -0.134 E-score.
To ACCAATAC belongs -0.0366 E-score; to CAGAAAGA, 0.0913 E-score; to AGCCTAAA, -0.11 E-score.
To ATGGACTC belongs -0.26 E-score.
The sequence AAGGCATC had a binding signal of -0.19 E-score.
For ATCCGTAG, the binding signal was 0.0912 E-score.
To AAGGCGTC belongs -0.253 E-score.
To ACTCGTCA belongs -0.162 E-score.
To AGTAGGTA belongs -0.00443 E-score; to AGTCAAGC, -0.192 E-score; to ATGTTGTG, 0.116 E-score.
Consider CAGACGAC, for which the binding signal was -0.227 E-score.
With AAGCTGCG the figure was -0.133 E-score.
To ACACCACG belongs -0.0144 E-score; to AAACTAAC, 0.0376 E-score; to ATGACAGG, -0.173 E-score.
To ATTGAGTC belongs 0.0227 E-score.
AACATAGC registered a binding signal of -0.0455 E-score.
CAGCCCTG: the binding signal was -0.242 E-score.
With AGCGTAGG the figure was -0.221 E-score; with AAAGCCCT, -0.213 E-score.
With ACCGTCTG the figure was -0.243 E-score; with AGGAGGGA, -0.175 E-score.
To ATCTCATA belongs 0.291 E-score; to ATGAAGAA, 0.14 E-score; to AAGTTCTA, -0.0359 E-score.
Turning to AAACGCAA, the binding signal was 0.248 E-score.
For ACTCGTAG, the binding signal was -0.0217 E-score.
With ACGGCACT the figure was -0.15 E-score; with AAAGTAGT, 0.00278 E-score.
The sequence CAGAACTG displayed a binding signal of 0.119 E-score.
With AGTGCACA the figure was -0.0902 E-score; with CAATACGG, -0.00433 E-score.
With ACGTATCG the figure was 0.223 E-score.
With ATTGCTTG the figure was 0.145 E-score.
On to AAGGTATA, for which the binding signal was -0.0471 E-score.
Sequence ATGTCCAG displayed a binding signal of -0.104 E-score.
Take AGTACGCG: the binding signal was -0.0852 E-score.
To CAGATCAG belongs 0.0747 E-score; to CACCTTGG, -0.224 E-score.
To ATTGCGGA belongs 0.359 E-score; to CAATATTG, 0.179 E-score.
With AAGGGGGG the figure was -0.217 E-score.
The sequence ATTAATTC displayed a binding signal of 0.0712 E-score.
To ATTTTACG belongs 0.213 E-score; to AGGCACTC, -0.319 E-score.
As to AATCGCAA, the binding signal stood at 0.359 E-score.
To AACTCCCG belongs -0.0679 E-score.
With AAGGAGTA the figure was -0.078 E-score.
With AAGAAGAC the figure was -0.14 E-score; with CAAACAGG, -0.0305 E-score; with AATGGGGC, -0.137 E-score.
The sequence CACGACGA had a binding signal of -0.143 E-score.
To AAAACGCC belongs -0.205 E-score.
To AGAGGAAA belongs -0.0222 E-score; to AATCCTCC, 0.375 E-score.
With ATCTAATG the figure was 0.243 E-score; with ACCTTGTC, -0.18 E-score; with CACGCGGG, -0.264 E-score.
ACTAGAAC displayed a binding signal of -0.00464 E-score.
Turning to AGACCAAG, the binding signal was -0.166 E-score.
With AATCCATT the figure was 0.38 E-score.
To CACGGAAA belongs 0.0439 E-score.
AAGAAGAT: the binding signal came out at 0.293 E-score.
With AAAACAGC the figure was 0.0536 E-score; with AGGGTACG, -0.119 E-score.
To AGGCGGAA belongs -0.112 E-score; to ACATATAT, 0.237 E-score; to AGTATGAA, -0.0112 E-score.
With CACCCTAG the figure was -0.00767 E-score.
CAATGGGG returned a binding signal of -0.0549 E-score.
ATTCGGGG displayed a binding signal of 0.132 E-score.
To AACGCTCG belongs -0.182 E-score.
With AGTTGTAA the figure was 0.0178 E-score.
With ATTACGGG the figure was 0.264 E-score; with ACCCTTTG, -0.188 E-score.
In turn, AGTGACCG returned a binding signal of -0.192 E-score.
With ACTCCCAA the figure was -0.124 E-score; with AGCTCGGC, -0.153 E-score.
With AACATGTA the figure was -0.0556 E-score; with ACAACGAT, 0.168 E-score; with AGATTACG, 0.484 E-score.
As to AGCCGTGG, the binding signal is -0.243 E-score.
To ATTACCCA belongs 0.234 E-score.
With AAGAGAGA the figure was -0.239 E-score; with ATCCATGA, 0.232 E-score.
With ACCTCATA the figure was -0.025 E-score; with ACATCAAA, -0.0694 E-score.
On to ACAATCAT, for which the binding signal came out at 0.221 E-score.
With ACAGAGCG the figure was -0.069 E-score.
With AAAACTAC the figure was 0.0385 E-score; with AGAGAGCT, -0.191 E-score; with AAAAGCGC, 0.142 E-score.
With ATTTGAGG the figure was 0.0896 E-score.
AGGAAGTA returned a binding signal of -0.00318 E-score.
With AAAAGTAT the figure was 0.0474 E-score; with ATGTACTA, -0.018 E-score; with AGCTCTCG, -0.171 E-score.
With AAACTCTT the figure was 0.0141 E-score.
To AGTGTGCA belongs 0.015 E-score; to CAACTCGC, -0.125 E-score.
